Experimental data reported in PubChem BioAssay AID686971 (National Center for Advancing Translational Sciences (NCATS), 2013).
Among all 360,000 compounds or so, about 7,500 (2.1%) were called active. Inconclusive means that the source gave no clear call. Such entries were picked first, then a sample of the others. Calls come from the whole dose curve; as a rule, active = well fitted cell-killing curve with a large enough effect; inconclusive = small, poorly fitted or top-dose-only effect, or effect the other way, or another doubt; inactive = no such curve, though single readings can be large or run the other way. Potencies of inconclusive entries are left out as doubtful fits.

experiment: qHTS for induction of synthetic lethality in tumor cells producing 2HG: qHTS for the HT-1080-IDH1KD cell line; conditions: HT-1080 IDH1 knockdown viability, ATP luminescence, 48 h; activity, negative = toxicity: at 46.1 µM (top of the series) unless noted;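 for activity, negative = toxicity: 0% = DMSO wells and -100% = cell-free medium wells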
Summary of the method: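 Knockdown cells (IDH1KD HT-1080) received compounds 2 h after plating at 750 cells/well and were kept 48 h at 37 °C in 5% FBS RPMI. A CellTiter-Glo luminescence read gave % activity for curve fitting.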
Potency is the fitted concentration of half-maximal effect; tags give direction and shape of the fitted curve.

Structure (SMILES)	Potency	activity, negative = toxicity
COC(=O)Cn1c(CCS(=O)(=O)c2ccc(C)cc2)nc2ccccc21	inconclusive [cytotoxic, single point]	
CCCCCOc1ccc(/C=C/C(=O)NCCc2nc3ccccc3[nH]2)cc1OC	inconclusive [cytotoxic, single point]	
COc1ccc([N+](=O)[O-])cc1NC(=O)C(C)OC(=O)CSC(C)C(=O)Nc1cc(C)on1 (stereo unspecified)	inactive	
CC1(C)C(C=C(Cl)Cl)C1C(=O)Nc1ccc([N+](=O)[O-])cc1 (stereo unspecified)	inconclusive [cytotoxic, single point]	
C=C(C)[C@@H]1C2=CC(C(=O)OC)=C(C[C@@H](C(=C)C)[C@H]3O[C@H]3C3=C[C@H]1OC3=O)O2	active: 3.55 µM	
COc1ccc([C@H]2CC(=O)C=C(c3ccccc3-c3ccccc3)C2)cc1	inconclusive [cytotoxic, single point]	
COc1cccc(NC(=O)CN(C)C(=O)c2ccc3c(c2)S(=O)(=O)N=C2CCCCCN23)c1	inactive	
COc1ccc(OCc2nnc(SCC(=O)Nc3nnc(C4CC4)s3)n2C)cc1	inactive	
O=C(Oc1ccc(F)cc1C(=O)/C=C/c1cccs1)c1cccc([N+](=O)[O-])c1	inconclusive [cytotoxic, single point]	
O=C(Nc1ccccc1)OC1CCC2CC1CCC2OC(=O)Nc1ccccc1 (stereo unspecified)	inconclusive [cytotoxic, single point]	
O=[N+]([O-])c1ccccc1S(=O)(=O)N1CCN(Cc2ccsc2)CC1	inactive	
CCCCc1[nH]nc2c1C1(C(=O)N(CC)c3ccccc31)C(C#N)=C(N)O2 (stereo unspecified)	inactive	
CC(C)n1cc(/C=N/NC(=O)COc2cccc3cccnc23)c2ccccc21	inconclusive [cytotoxic, single point]	
O=C(COc1cc(Cl)c(Cl)cc1Cl)NC(=O)NC1CCCC1	inconclusive [cytotoxic, single point]	
COCCNC(=O)C1CCCN(C(=O)c2ccc(OC)c(F)c2)CC1 (stereo unspecified)	inconclusive [rising, single point]	
Cc1sc(C(=O)Nc2ccc3ccccc3c2)cc1CC(=O)O		inconclusive: 6.18%
Cc1c(C(=O)OCc2ccccc2)[nH]c2c1C(=O)CC(c1ccco1)C2 (stereo unspecified)	active: 1.3 µM	
CC(=O)c1cc(CN2CCN(C3CCN(C(C)C)CC3)C(CCO)C2)cs1 (stereo unspecified)	inactive	
COc1ccc(OC)c(CCNC(=O)c2ccc3c(c2)N(Cc2ccccc2)CCS3)c1	inactive	
COc1cc(C(C)=O)ccc1OCC(=O)Nc1ccccc1N1CCCCC1	inconclusive [cytotoxic, single point]	
COc1ccc(NC(=O)C2Cc3c(-c4cccc(C(C)=O)c4)ccnc3O2)cn1 (stereo unspecified)	active: 3.26 µM	
CC(Oc1ccc(C(C)(C)C)cc1)c1ccnc2nc(/N=C/N(C)C)nn12 (stereo unspecified)	inconclusive [cytotoxic, partial curve, poor fit]	
CC1=CC(C)(C)Nc2ccc(OC(=O)C(C)N3C(=O)c4ccccc4C3=O)cc21 (stereo unspecified)	active: 18.4 µM	
Cn1c2ccccc2c(=O)c2cc(C#Cc3ccccn3)ccc21	inactive	

Structure (SMILES)	Potency	activity, negative = toxicity
O=C(CN1CCN(C(=O)c2ccccc2)CC1)Nc1cc(S(=O)(=O)N2CCCC2)ccc1Cl	inactive	
N#Cc1c(NCCN)nc(-c2ccccc2)c2c1CCCC2	inconclusive [cytotoxic, partial curve]	
c1cc2ccc3ccc(-n4cnnn4)c4ccc(c1)c2c34	inconclusive [cytotoxic, single point]	
CC(Sc1ncccn1)C(=O)NC1(C#N)CCCCC1 (stereo unspecified)	inactive	
COc1ccc(-c2csc3ncnc(NCCN4CCOCC4)c23)cc1	active: 20.6 µM	
CCOC(=O)[C@]12Cc3c(cc(OC)c(OC)c3OC)[C@H]1N(Cc1ccccc1)C(=O)c1cc(F)c(F)cc12	inconclusive [cytotoxic, single point]	
CCCCN(C=O)c1c(CC)nc2c(OCCC3CCCCC3)cccn12	inconclusive [cytotoxic, single point]	
CCC1SC2=NCCN2C1(O)c1ccc(Cl)cc1 (stereo unspecified)	inconclusive [cytotoxic, single point]	
COc1ccc(NC(=O)c2oc3ccccc3c2NC(=O)C2CC2)cc1	inactive	
O=C(CCCCCn1c(=S)[nH]c2ccc(N3CCOCC3)cc2c1=O)NC1CCN(Cc2ccccc2)CC1	inconclusive [cytotoxic, partial curve]	
O=C(c1ccc(S(=O)(=O)Cc2cc(F)ccc2F)c([N+](=O)[O-])c1)N1CCOCC1	inconclusive [cytotoxic, partial curve]	
O=C(CC1SC(=Nc2ccccc2)N(CCc2ccccn2)C1=O)Nc1ccc(F)cc1 (stereo unspecified)	inconclusive [cytotoxic, single point]	
CCc1ccccc1NC(=O)c1sc2nc(C)cc(C)c2c1N	inactive	
COc1ccc(CSc2ncnc3sccc23)cc1F	inactive	
C/C(=N\Nc1ccccc1)c1c(O)cc(C)oc1=O	active: 11.6 µM	
O=C(N/N=C/c1cc(Cl)c(O)c(Cl)c1)c1cc2c(ccc3ccccc32)o1	inconclusive [cytotoxic, single point]	
CCCC1NC(=O)c2cc3ccccc3cc2-n2c1nc1cc(F)ccc1c2=O (stereo unspecified)	inconclusive [cytotoxic, single point]	
ClCc1nc2ccccc2c2ccccc12	active: 18.4 µM	
CC1c2cc3c(cc2CCN1C(=O)c1ccc(Br)cc1)OCCCO3 (stereo unspecified)	inconclusive [cytotoxic, single point]	
COc1ccc2oc(=Nc3cc(F)ccc3F)c(C(N)=O)cc2c1	inconclusive [cytotoxic, partial curve, poor fit]	
Cc1c(Cc2ccccc2)sc(/N=C/c2ccc3ccccc3c2)c1C(N)=O	active: 2.91 µM	
CCN(CC)S(=O)(=O)c1cccc(-c2nnc(SCC(=O)NC3CCCCCCC3)n2N)c1	inconclusive [cytotoxic, single point]	
COc1ccccc1Cc1c(-c2ccc(F)cc2)nc2ccc(Br)cn12	inconclusive [cytotoxic, single point]	
CN(C)S(=O)(=O)c1cccc(NC(=O)COc2ccc(C(=O)c3ccccc3)cc2)c1	inconclusive [cytotoxic, single point]	

Structure (SMILES)	Potency	activity, negative = toxicity
C=CCn1c(SCc2csc(C)n2)nc2sc3c(c2c1=O)CCCC3	inconclusive [cytotoxic, partial curve]	
CCCCNC(=O)C(NC(=O)c1cccnc1)C(=O)c1ccccc1 (stereo unspecified)	inactive	
CCOc1ccccc1NC(=S)NC(=O)CCCOc1ccc(Cl)cc1Cl	inconclusive [cytotoxic, single point]	
COc1cc(C(=O)N2CCCCC2c2cc(C(=O)Nc3ccccc3)no2)cc(OC)c1C (stereo unspecified)	inconclusive [cytotoxic, single point]	
O=C(NC1CCCC1)C(c1ccccc1)N(C(=O)c1csnn1)c1ccccc1F (stereo unspecified)		inconclusive: -1.22% [cytotoxic]
COc1ccc(C(C)(O)c2nc(-c3ccccc3OC)cs2)cc1 (stereo unspecified)	active: 16.4 µM	
Cc1ccc(Nc2nc(Cl)nc(N(C)C#N)n2)cc1	inconclusive [cytotoxic, single point]	
COc1ccc(CNC(=O)CCCn2ccc3cc(S(=O)(=O)N4CCCC4)ccc32)cc1	inconclusive [cytotoxic, partial curve]	
CCN(CC)S(=O)(=O)c1cc(NC(=O)c2ccc(Br)s2)ccc1C	inconclusive [cytotoxic, single point]	
CC1(C)Cc2ccccc2C2=NNC(=O)C2=N1	active: 7.31 µM	
C[C@H](CO)N1C[C@H](C)[C@@H](CN(C)C(=O)NC2CCCCC2)Oc2c(NC(=O)Nc3ccc4c(c3)OCO4)cccc2C1=O	inactive	
O=C(NCCOc1ccccc1)c1cc([N+](=O)[O-])ccc1N1CCOCC1	active: 7.31 µM	
CC(C)(C)n1nc2c(c1NC(=O)COc1ccc(Cl)cc1)CSC2	inconclusive [cytotoxic, single point]	
O=C(NNC(=O)c1ccc(F)c(S(=O)(=O)N2CCOCC2)c1)c1ccc(Br)cc1	inactive	
CC1NC(=O)COC1c1ccccc1 (stereo unspecified)	inactive	
CC(CCc1ccco1)NC(=O)CCc1nnc2ccc(NCc3ccc(Cl)cc3)nn12 (stereo unspecified)	inactive	
CCN(CC)CCCNC(=O)c1sc2nc(-c3ccc(F)cc3)cn2c1C	inconclusive [cytotoxic, single point]	
CCOC(=O)c1ccc2ncc(C(=O)OCC)c(NCCCN3CCOCC3)c2c1	inconclusive [rising, single point]	
COc1ccc(CCNCC(=O)Nc2ccc(C)c(Br)c2)cc1OC	inconclusive [cytotoxic, single point]	
CC(=O)Nc1ccc(Nc2nc(-c3c(C)nc4ccccn34)cs2)cc1	active: 2.91 µM	
COc1ccccc1Nc1nnc(SCC(=O)Nc2nc(-c3ccc(F)cc3)cs2)s1	inconclusive [cytotoxic, single point]	
Cn1cnnc1SC(C(=O)Nc1cc(Cl)cc(Cl)c1)c1ccccc1 (stereo unspecified)	inconclusive [cytotoxic, partial curve]	
CC(C)CCn1c(=O)c2ccccc2n2c(CCl)nnc12	inconclusive [cytotoxic, single point]	
